Measured values reported in PubChem BioAssay AID493208 (National Center for Advancing Translational Sciences (NCATS), 2011).
In all, about 44,000 compounds went through this assay and about 340 (0.77%) were called active. Roughly 5% stayed inconclusive and do not appear here. Calls come from the whole dose curve; as a rule, active = well fitted inhibition curve with a large enough effect; inconclusive = small, poorly fitted or top-dose-only effect; inactive = flat fitted curve, though single readings scatter. Some of the results follow.

assay: Acumen qHTS Assay for Inhibitors of the mTORC1 Signaling Pathway in MEF (Tsc2-/-, p53-/-) Cells: Sytravon; conditions: phospho-rpS6 immunofluorescence/PI, 24 h; series mostly up to 38.3 µM; activity change, negative = inhibition: at the top concentration; note: nearly all actives have a fitted effect of over 50% in size
Description: NIH Molecular Libraries Probe Production Centers Network [MLPCN] NIH Chemical Genomics Center [NCGC] MLPCN Grant: NS059428-01 Assay Submitter (PI): Blenis, John; Hoffman, Greg; Harvard University NCGC Assay Overview: The mammalian target of rapamycin (mTOR) is an intracellular serine/threonine kinase Aberrant regulation of mTOR signaling plays a causative role in a number of human diseases, including cancer, benign tumors such as lymphangioleiomyomatosis (LAM) and Tuberous Sclerosis Complex (TSC), and metabolic diseases such as diabetes and obesity. This project aims to identify inhibitors of ribosomal protein S6 (rpS6) phosphorylation. The phosphorylation of rpS6 is a key event downstream of mTOR activation. The assay uses a phospho-specific antibody of phospho-rpS6 to detect inhibitors of mTOR activation. Mutations in the Tsc1 and Tsc2 genes are the underlying genetic lesions responsible for TSC, causing constitutive activation of the mTORC1 pathway and leading to profound effects on cell metabolism. Aberrant metabolism in cancer has recently received significant attention as a target to develop therapeutic agents in the treatment of cancer.1 As Tsc2-/- cells have lost the ability to respond to energy and growth factor deprivation, these cells are unable to properly down regulate cellular biosynthetic processes in response to metabolic stress, and are thus extremely sensitive to glucose deprivation-induced death.2 A central goal of this project is to explore the unique cell survival and metabolic properties of cells with Tsc1 or Tsc2 by screening for compounds that selectively target the Tsc2-/- MEFs by screening both Tsc2-/- and WT MEF cell lines. We hope to better understand these aspects of TSC physiology in order to exploit them for therapeutic benefit.
NCGC Acumen Assay Protocol Summary: For quantitative high throughput analysis of mTORC1 signaling, we developed a cell-based assay for immuno-fluorescence based detection of rpS6 phosphorylation on the Acumen Explorer that will be used a platform for the primary small molecule screen. Mouse embryonic fibroblasts (MEFs) are cultured in 1536-well plates using DMEM + 10% FBS. Twenty-four hrs after plating, test compounds (solubilized in DMSO) are delivered and incubated with the cells for 24 hrs at 37 degree Celsius. Following the incubation, media with compound is aspirated and the cells are fixed in 4% paraformaldehyde (PFA) containing PBS + 0.2% TX-100. Next, PFA is aspirated, cells are washed two times with PBS plus 0.2% TX-100 and the cells are blocked for 1 hr at room temperature (blocking buffer: LiCOR Blocking Buffer plus 0.2% TX-100). […] Cells are washed two times with PBS plus 0.2% TX-100, and stained with 10 uM propidium iodide (PI) for 20-25 minutes for cell number measurement (1:500 dilution of Hoescht staining is also added for IN Cell imaging). The plates are scanned on the Acumen Explorer laser scanning instrument (TTP Labtech) using the 488nm laser for simultaneous excitation of the Alexa-488 and PI. […] The normalized phospho-S6 staining is calculated as the ratio of the integrated Alexa 488 intensity divided by the integrated PI intensity for the single concentration rapamycin control (7.5 nM) and DMSO columns. […] Inhibition of the pathway is defined based on the normalized phospho-S6 intensity in rapamycin treated cells. Active cells are defined as those with a normalized phospho-S6 staining above this threshold, and each treatment is reported as the % positive cells in the well, where thresholds are defined by selecting wells with the highest and lowest signal and differentiating between the % non-active and % active populations. In addition to the pathway specific phospho-S6 endpoint, the number of PI stained cells from the Acumen is recorded as a measure of cell viability. The primary screen was performed with a MEF cell line in a defined genetic background, Tsc2-/-, p53-/- cell line stably transfected with an empty vector control (Tsc2-/- MEF).
Potency is the fitted concentration of half-maximal effect.

Row | SMILES | activity change, negative = inhibition | Potency
1 | CCc1ccc(OCC(=O)N2CCN(CCc3ccncc3)CC2)cc1 | inactive: 0.218% | 
2 | Cc1ccccc1CN1C(=O)C(C)N=C(c2ccccc2)c2ccccc21 (centres undefined) | inactive: -9.86% | 
3 | CCOc1ccc2nc(NC(=O)c3cccn(Cc4ccccc4Cl)c3=O)sc2c1 | inactive: -10.7% | 
4 | CCOc1ccc(CN(CCc2ccc3c(c2)OCO3)Cc2ccc(OC)c(Br)c2)cc1 | inactive: -5.97% | 
5 | Cc1ccc(C(C)C)c(OCC(=O)N2CCN(CCc3ccncc3)CC2)c1 | inactive: -25.1% | 
6 | Cc1ccc(C(=O)Nc2ccccc2)cc1S(=O)(=O)N1CCCC1 | inactive: -3.64% | 
7 | Cc1ccccc1-n1c(/C=C/c2ccc(N(C)C)cc2)nc2ccccc2c1=O | inactive: -5.14% | 
8 | O=C(c1ccc2c(c1)N(Cc1ccc(F)cc1)C(=O)c1ccccc1S2)N1CCC2(CC1)OCCO2 | inactive: -6.48% | 
9 | COc1ccc(OCC(=O)N2CCN(Cc3ccc(SC)cc3)CC2)cc1 | inactive: 0.178% | 
10 | Cc1cccc(Cn2cccc(C(=O)Nc3ccc(F)cc3F)c2=O)c1 | inactive: 3.43% | 
11 | Cc1ccc(OCC(=O)N2CCN(CCc3ccncc3)CC2)cc1 | inactive: -4.06% | 
12 | CC(C)c1ccc(OCC(=O)N2CCN(CCc3ccccn3)CC2)cc1 | inactive: -13.4% | 
13 | COc1ccc(OCC(=O)N2CCN(Cc3cc(=O)n4nc(-c5ccc(OC)cc5)sc4n3)CC2)cc1 | inactive: -1.13% | 
14 | COc1cccc(-c2nn3c(=O)cc(CN4CCN(C(=O)COc5ccccc5C)CC4)nc3s2)c1 | inactive: 4.49% | 
15 | Cc1ccc(OCC(=O)Nc2ccc(Cl)cc2C(=O)c2ccccc2)cc1C | inactive: 15.9% | 
16 | Cc1nnc(NC(=O)c2cccn(Cc3cccc(F)c3)c2=O)s1 | inactive: 2.15% | 
17 | Cc1c(Cl)cccc1NC(=O)c1oc2ccc(S(=O)(=O)N3CCC4(CC3)OCCO4)cc2c1C |  | active: 13.1 µM
18 | Cc1ccc(NC(=O)Cn2cc(C(=O)c3ccccc3)c3ccccc32)c(C)c1 | inactive: -1.19% | 
19 | Cc1cccc(CN2C(=O)CN=C(c3ccccc3)c3ccccc32)c1 | inactive: -0.185% | 
20 | COc1ccc(-n2c(/C=C/c3cccc(F)c3)nc3ccccc3c2=O)cc1Cl | inactive: 12.5% | 
21 | Cc1cccc(-n2nc(C)c3c2NC(=O)CSC3c2ccccc2Cl)c1 (centres undefined) | inactive: -0.0021% | 
22 | CCOc1ccc(CN(CCc2ccc3c(c2)OCO3)Cc2ccc(C)cc2)cc1 | inactive: -7.08% | 
23 | CC(C)Cc1nc2cccnc2n1C1CCNCC1 | inactive: 3.26% | 
24 | CCCCC12CN3CC(C)(CN(C1)C3c1ccccn1)C2=O (centres undefined) | inactive: 6.49% | 
25 | Cc1ccccc1OCC(=O)N1CCN(CCc2ccccn2)CC1 | inactive: 3.48% | 

Row | SMILES | activity change, negative = inhibition | Potency
26 | COc1ccc(NC(=O)CCc2nc(C3=CCN(Cc4cccc(Cl)c4)CC3)no2)c(OC)c1 | inactive: 0% | 
27 | O=S1(=O)N(Cc2ccccc2Cl)CCCN1Cc1ccccc1Cl | inactive: -0.129% | 
28 | O=C(Nc1ccc2c(c1)OCO2)c1cccn(Cc2cccc([N+](=O)[O-])c2)c1=O | inactive: 1.63% | 
29 | O=c1c2ccccc2nc(/C=C/c2ccccc2F)n1-c1cccc(O)c1 | inactive: -19.5% | 
30 | CCc1nc(SC)ncc1C(=O)Nc1ccc(Cl)cc1C(=O)c1ccccc1 | inactive: -3.4% | 
31 | Cc1cccc(-c2nn3c(=O)cc(CN4CCN(C(=O)COc5ccc(Cl)cc5)CC4)nc3s2)c1 | inactive: 0% | 
32 | COc1cccc(C2SCC(=O)Nc3c2c(C)nn3-c2ccc(C)c(Cl)c2)c1OC (centres undefined) | inactive: -6.59% | 
33 | CN(C)c1ccc(NC(=O)c2sc3nc4c(cc3c2N)N2CCC4CC2)cc1 | inactive: 6.14% | 
34 | Cc1ccc(Cn2cccc(C(=O)Nc3cc(C)on3)c2=O)cc1 | inactive: -1.46% | 
35 | Cc1c(C(c2ccc(Br)cc2)c2c(O)c3ccccc3oc2=O)c(=O)n(-c2ccccc2)n1C (centres undefined) | inactive: 5.57% | 
36 | Cc1ccccc1-n1nc(C)c2c1NC(=O)CSC2c1ccc(Cl)cc1 (centres undefined) | inactive: -7.56% | 
37 | COc1ccc(OCC(=O)N2CCN(CCc3ccncc3)CC2)cc1 | inactive: 1.09% | 
38 | Cc1ccccc1-n1c(/C=C/c2c(C)[nH]c3ccccc23)nc2ccccc2c1=O | inactive: -25.7% | 
39 | Cc1ccc(Cn2cccc(C(=O)Nc3ccc4c(c3)OCCO4)c2=O)cc1 | inactive: 0.319% | 
40 | COc1ccccc1C1SCC(=O)Nc2c1c(C)nn2-c1cccc(C)c1 (centres undefined) | inactive: -9.99% | 
41 | Cc1ccc(-c2nc(CN3C(=O)CN=C(c4ccccc4)c4ccccc43)c(C)o2)cc1 | inactive: 1.97% | 
42 | CCN(CC)C(=O)c1ccc(NC(=O)c2ccc(-c3nn(C)c(=O)c4ccccc34)cc2)cc1 | inactive: 1.08% | 
43 | COc1ccc(Br)cc1C1SCC(=O)Nc2c1c(C)nn2-c1ccccc1C (centres undefined) | inactive: -6.21% | 
44 | Cc1ccc(-c2nn3c(=O)cc(CN4CCN(C(=O)COc5ccc(C)c(C)c5)CC4)nc3s2)cc1 | inactive: 6.24% | 
45 | CCCC12CN3CC(C)(CN(C1)C3c1c(C)[nH]c(=O)[nH]c1=O)C2=O (centres undefined) | inactive: -0.0216% | 
46 | Cc1ccccc1-c1nc(CN2C(=O)CN=C(c3ccccc3)c3ccccc32)c(C)o1 | inactive: 0.691% | 
47 | CCc1ccc(-n2nc(C)c3c2NC(=O)CSC3c2ccc(C(=O)OC)cc2)cc1 (centres undefined) | inactive: -8.39% | 
48 | COc1ccccc1-c1nn2c(=O)cc(CN3CCN(C(=O)COc4ccccc4Cl)CC3)nc2s1 | inactive: 0.211% | 
49 | O=C(Nc1ccc(Br)cc1C(=O)c1ccccc1Cl)c1ccc(Br)cc1 | inactive: -3.84% | 
